# In all, about 370,000 compounds went through this assay and about 150 (0.041%) were called active. The shares of active, inactive and inconclusive entries below differ from those in the screen. Calls follow the shape of the dose curve; as a rule, active = well fitted inhibition curve with a large enough effect; inconclusive = small, poorly fitted or top-dose-only effect; inactive = flat fitted curve, though single readings scatter. No potency is given beside an inconclusive call; the fits are too rough.
# Target: Beta-lactamase (Escherichia coli (strain K12)) (UniProt P00811)
# Sequence of UniProt P00811 (P00811 whole entry, looked up): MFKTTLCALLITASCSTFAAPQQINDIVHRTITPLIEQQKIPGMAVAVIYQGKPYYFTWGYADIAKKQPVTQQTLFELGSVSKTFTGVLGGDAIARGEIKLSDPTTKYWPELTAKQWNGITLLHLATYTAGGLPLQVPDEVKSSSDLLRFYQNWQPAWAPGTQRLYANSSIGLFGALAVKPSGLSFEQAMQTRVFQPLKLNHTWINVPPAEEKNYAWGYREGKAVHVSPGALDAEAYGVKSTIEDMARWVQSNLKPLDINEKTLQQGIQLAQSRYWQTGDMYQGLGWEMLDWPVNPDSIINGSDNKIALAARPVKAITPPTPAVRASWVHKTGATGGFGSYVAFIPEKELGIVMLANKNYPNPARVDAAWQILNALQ
# Experiment: qHTS Inhibitors of AmpC Beta-Lactamase (assay with detergent); also: nearly all actives have a fitted effect of over 25% in size
# Details: AmpC hydrolysis of nitrocefin, absorbance 480 nm, 0.01% Triton; series mostly up to 114 µM
# Outline: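 AmpC (5.3 nM in the dispensed reagent) in 20 mM phosphate pH 7.0 with 0.01% (detergent screen) or 0.0001% Triton X-100 was preincubated with compounds for 15 min at room temperature. Nitrocefin was then added from an 800 uM solution, and hydrolysis was followed at 480 nm.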
# Potency is read from the fitted curve at half-maximal effect; tags tell the direction and shape of the fitted curve.
row,Compound,Potency
1,Cc1ccccc1N(C)S(=O)(=O)c1nnc(NC(=O)c2ccccc2F)s1,"inconclusive [inhibitor, full curve, poor fit]"
2,Cc1ccc(CNC(=O)C2CCCN(S(=O)(=O)c3c(C)noc3/C=C/N(C)C)C2)cc1 (stereo not drawn),inactive
3,CC(C)CN(C(=O)C1CCCC1)C1CCS(=O)(=O)C1 (stereo not drawn),"inconclusive [inhibitor, full curve, poor fit]"
4,CC(C)C(=O)Nc1c(-c2cccs2)c(=O)c2ccccc2n1C,"inconclusive [inhibitor, single point]"
5,Cc1c(C(=O)NCc2ccccn2)sc2nc(-c3ccc(F)cc3)cn12,"inconclusive [inhibitor, partial curve]"
6,Cn1nc(C(=O)NNc2c(F)c(F)cc(F)c2F)c2ccccc2c1=O,"inconclusive [inhibitor, single point]"
7,COc1ccc(OC)c(NC(=O)C2CCN(c3cc(-c4ccccc4)nc4ncnn34)CC2)c1,inactive
8,O=C(CN1C(=O)CCn2nc(-c3ccccc3)cc21)NCc1ccc(F)cc1,inactive
9,CC(C)OCCOc1ccc2oc(-c3ccco3)cc(=O)c2c1,"inconclusive [inhibitor, full curve, poor fit]"
10,Cc1ccc(OCC(=O)Nc2cccnc2Cl)cc1C,inactive
11,Cn1c(SCC(=O)NCc2ccco2)nnc1-c1cccs1,"inconclusive [inhibitor, single point]"
12,COc1ccc2c(c1)c1c(c(=O)n(-c3ccccc3)c(=O)n1CC(=O)NCCC1=CCCCC1)n2C,inactive
13,CCOc1ccc(N=C(/C(C(=O)C(=O)N2CCOCC2)=C(\O)c2ccccc2)c2ccccc2)cc1,"inconclusive [inhibitor, single point]"
14,Cc1ccc(C(=O)NCC(=O)OCC(=O)c2c(N)n(C)c(=O)n(C)c2=O)s1,"inconclusive [inhibitor, partial curve, poor fit]"
15,CC(C)(CNC(=O)c1ccc(-c2ccccc2Cl)o1)N1CCOCC1,"inconclusive [inhibitor, partial curve, poor fit]"
16,Fc1ccccc1CSc1ccc(-c2ccco2)nn1,inactive
17,Cc1ccc(N(C(C)C(=O)Nc2ccc(S(=O)(=O)N3CCOCC3)cc2)S(C)(=O)=O)cc1C (stereo not drawn),"inconclusive [inhibitor, partial curve]"
18,Cc1nnc(Cl)c2nn(-c3ccccc3)c(C)c12,inactive
19,O=C(CN1CCN(c2ccc(F)cc2)CC1)N1CCC(Cc2ccccc2)CC1,"inconclusive [inhibitor, full curve, poor fit]"
20,COc1ccc2nc(N3CCC(O)CC3)c(C#N)cc2c1,inactive
21,CS(=O)(=O)N1CCN(c2ccc(NC(=O)c3ccc(-c4ccc(Cl)cc4)o3)cc2)CC1,"inconclusive [inhibitor, full curve]"
22,COc1ccc2c(c1)c(=O)cc(C)n2CC(=O)NCc1ccco1,"inconclusive [inhibitor, full curve]"
23,COc1cccc(C2NC(CCSC)(C(=O)O)C3C(=O)N(C(C)C)C(=O)C23)c1O (stereo not drawn),"inconclusive [inhibitor, full curve, poor fit]"

row,Compound,Potency
1,COc1cc(C(=O)OCC(=O)N2CCCCC2C)ccc1OCc1c(C)noc1C (stereo not drawn),"inconclusive [inhibitor, partial curve, poor fit]"
2,COc1ccc(C2=NCCn3cccc32)c(OC)c1,"inconclusive [inhibitor, full curve]"
3,N=c1c(C(=O)NCC2CCCO2)cc2c(=O)n3ccccc3nc2n1CCCO (stereo not drawn),inactive
4,Fc1ccc(C(c2nnnn2Cc2cccs2)N2CCN(C3CCCCC3)CC2)cc1 (stereo not drawn),"inconclusive [inhibitor, full curve, poor fit]"
5,CCC(=O)Nc1nnc(SCCN2CCOCC2)s1,"inconclusive [inhibitor, full curve, poor fit]"
6,Cc1ccc(Oc2nc(CN3CCOCC3)nc3sc4c(c23)CCC(C)C4)cc1C (stereo not drawn),inactive
7,CCOC(=O)C1CCCN(CC(O)COc2ccccc2C(C)=O)C1 (stereo not drawn),"inconclusive [inhibitor, full curve, poor fit]"
8,NNC(=O)c1cc2c(N3CCC(Cc4ccccc4)CC3)ncnc2s1,inactive
9,CCOC(=O)c1c(NC(=O)COC(=O)Cc2n[nH]c(=O)c3ccccc23)sc(C(=O)N(C)C)c1C,"inconclusive [inhibitor, partial curve, poor fit]"
10,Cc1ccc(-c2csc(NC(=O)c3cccc(S(=O)(=O)N4CCN(C)CC4)c3)n2)cc1,"inconclusive [inhibitor, full curve, poor fit]"
11,O=C1NC2(CCCCCC2)C(=O)N1Cc1c(F)cccc1Cl,"inconclusive [inhibitor, single point]"
12,COc1ccccc1C1=NOC(C(=O)N2CCN(C(=O)c3ccco3)CC2)C1 (stereo not drawn),"inconclusive [inhibitor, full curve, poor fit]"
13,O=C(N/N=C/c1ccc([N+](=O)[O-])o1)c1ccccc1NS(=O)(=O)c1cccs1,inactive
14,O=C(N/N=C/c1cccc([N+](=O)[O-])c1)c1ccc(COc2ccccc2-c2ccccc2)cc1,"inconclusive [inhibitor, full curve, poor fit]"
15,CC1=C(C(=O)Nc2ccccc2)C(c2ccc(C(=O)O)cc2)n2ncnc2N1 (stereo not drawn),inactive
16,CCN(CC)S(=O)(=O)c1ccc(Cl)c(NC(=O)COc2ccccc2[N+](=O)[O-])c1,"inconclusive [inhibitor, full curve, poor fit]"
17,CCCCC(=O)Nc1ccc(C(=O)NNC(=O)c2cccs2)cc1,"inconclusive [inhibitor, partial curve]"
18,COc1cc(-c2cc(C(=O)Nc3ccc(O)cc3)c3ccccc3n2)cc(OC)c1OC,inactive
19,COCCN(Cc1cc2cc3c(cc2nc1Cl)OCO3)C(=O)Nc1ccccc1OC,inactive
20,Cc1ccn2cc(-c3ccc(NC(=O)c4ccco4)cc3)nc2c1,inactive
21,CCOc1ccc(-n2c(SCC(=O)Nc3nccs3)nc3c(c2=O)SCC3)cc1,"inconclusive [inhibitor, single point]"
22,CCOC(=O)C1=C(O)C(=O)N(c2ccc(S(N)(=O)=O)cc2)C1c1ccc(OC)cc1OC (stereo not drawn),"inconclusive [inhibitor, full curve, poor fit]"
23,Cc1cc(/C=C2\SC(=S)N(Cc3ccco3)C2=O)c(C)n1-c1cccnc1,inactive

row,Compound,Potency
1,COc1ccc(C(=O)Nc2nnc(Cc3ccccc3)s2)c(OC)c1,"inconclusive [inhibitor, partial curve, poor fit]"
2,Cn1cc(C(=O)N/N=C/c2cccc([N+](=O)[O-])c2)c2ccccc21,inactive
3,Cc1csc(=O)n1CCC(=O)OCc1nnc(-c2ccc(Cl)cc2)o1,"inconclusive [inhibitor, partial curve]"
4,O=C(NNC(=O)c1ccc(F)cc1)c1ccncc1,"inconclusive [inhibitor, full curve, poor fit]"
5,Cc1nc(=S)n(-c2ccccc2)[nH]1,inactive
6,CN(C(=O)c1cc(C(=O)N(C)c2ccccc2)cc([N+](=O)[O-])c1)c1ccccc1,"inconclusive [inhibitor, full curve, poor fit]"
7,Cc1c(Cl)cccc1N1C(=O)NC(=O)/C(=C\c2cc(C)n(-c3cccc(C(=O)O)c3C)c2C)C1=O,"inconclusive [inhibitor, partial curve, poor fit]"
8,CC(NC(=O)COc1ccc(Br)cc1)C1CCCO1 (stereo not drawn),"inconclusive [inhibitor, partial curve]"
9,COc1ccc(NC(=O)CCS(=O)(=O)c2ccccc2)c(OC)c1,"inconclusive [inhibitor, partial curve]"
10,O=Cc1ccc(C(=O)OCC(=O)Nc2ccc(F)cc2F)cc1,"inconclusive [inhibitor, full curve]"
11,CCOC(=O)c1c(-c2ccccc2)oc2ccc(O)c(CN3CCN(C)CC3)c12,inactive
12,C=CCN1C(=O)/C(=C\c2ccco2)C(C(=O)OC)=C1C,"inconclusive [inhibitor, partial curve, poor fit]"
13,Clc1cnc(N/N=C/c2cccs2)c(Cl)c1,inactive
14,CCOc1ccc(NS(=O)(=O)c2ccc(NS(C)(=O)=O)cc2)cc1,"inconclusive [inhibitor, partial curve, poor fit]"
15,Cc1nnc2ccc(N3CCC4(CC3)OCCO4)nn12,"inconclusive [inhibitor, full curve, poor fit]"
16,O=C(NCC(=O)N(Cc1ccccc1)C(C(=O)NC1CCCC1)c1ccco1)c1ccco1 (stereo not drawn),inactive
17,CSc1ncc(CN2CCCC(C(=O)c3ccccc3SC)C2)cn1 (stereo not drawn),inactive
18,COc1ccc(N=C2NC(=O)/C(=C/C=C/c3ccccc3)S2)cc1,inactive
19,COc1cccc(NC(=O)COC(=O)c2ccco2)c1,"inconclusive [inhibitor, partial curve, poor fit]"
20,CC1=CC2=NC(=O)/C(=C\c3cc(C)n(-c4ccc(F)cc4)c3C)C(=N)N2O1,"inconclusive [inhibitor, single point]"
21,CN(CC(=O)Nc1ccc(C#N)cc1)Cc1ccc(Cl)cc1,"inconclusive [inhibitor, partial curve, poor fit]"
22,O=C(CSc1nnc(NC(=O)c2ccccc2Cl)s1)NC1CC1,inactive

# — PubChem BioAssay AID485294 (National Center for Advancing Translational Sciences (NCATS), 2010)
